Test results as given in patent US11618753B2 (priority 2018, dated 2023).

test system: MLKL phosphorylation, HT29-L23 human colorectal adenocarcinoma cells; assay: cells; settings: read-out: pMLKL HCS Cell Assay (IC50, uM)

Row | Structure (SMILES) | IC50 [µM]
1 | COc1ncc(-c2cc(C(F)(F)F)c3c(N)ncnn23)cc1C(=O)N[C@@H]1CN(C(=O)c2cncc(C)n2)C[C@@H]1F [Example 1212, 5-[4-amino-5-(trifluoromethyl)pyrrolo[2,1-f][1,2,4]triazin-7-yl]-N-[(3R,4S)-4-fluoro-1-(6-methylpyrazine-2-carbonyl)pyrrolidin-3-yl]-2-methoxypyridine-3-carboxamide] | 0.074
2 | Cc1c(F)cc(-c2cc(C(F)(F)F)c3c(N)ncnn23)cc1C(=O)N[C@@H]1CN(C(=O)[C@@H](O)C(F)(F)F)C[C@@H]1F [Example 672, 5-[4-amino-5-(trifluoromethyl)pyrrolo[2,1-f][1,2,4]triazin-7-yl]-3-fluoro-N-[(3R,4S)-4-fluoro-1-[(2R)-3,3,3-trifluoro-2-hydroxypropanoyl]pyrrolidin-3-yl]-2-methylbenzamide] | 0.015
3 | COc1ncc(-c2cc(CN3CCC(F)(F)CC3)c3c(N)ncnn23)cc1C(=O)N[C@@H]1CN(S(=O)(=O)CCC(F)(F)F)C[C@@H]1F [Example 1541, 5-{4-amino-5-[(4,4-difluoropiperidin-1-yl)methyl]pyrrolo[2,1-f][1,2,4]triazin-7-yl}-N-[(3R,4S)-4-fluoro-1-(3,3,3-trifluoropropanesulfonyl)pyrrolidin-3-yl]-2-methoxypyridine-3-carboxamide] | 0.00083
4 | CC(C)CC(=O)N1C[C@H](F)[C@H](NC(=O)c2cc(-c3cc(C(F)(F)F)c4c(N)ncnn34)cc(F)c2CF)C1 [Example 625, 5-[4-amino-5-(trifluoromethyl)pyrrolo[2,1-f][1,2,4]triazin-7-yl]-3-fluoro-N-[(3R,4S)-4-fluoro-1-(3-methylbutanoyl)pyrrolidin-3-yl]-2-(fluoromethyl)benzamide] | 0.0018
5 | COC[C@@H]1C[C@H](NC(=O)c2cc(-c3cc(C(F)(F)F)c4c(N)ncnn34)cnc2OC)CN1C(=O)C1CC(F)(F)C1 (racemic) [Example 1700, 5-(4-amino-5-(trifluoromethyl)pyrrolo[2,1-f][1,2,4]triazin-7-yl)-N-((3SR,5SR)-1-(3,3-difluorocyclobutane-1-carbonyl)-5-(methoxymethyl)pyrrolidin-3-yl)-2-methoxynicotinamide] | 0.456
6 | Nc1ncnn2c(-c3cccc(C(=O)N[C@@H]4CN(C(=O)C5(F)CC5)C[C@@H]4F)c3)cc(C(F)(F)F)c12 [Example 97, 3-[4-amino-5-(trifluoromethyl)pyrrolo[2,1-f][1,2,4]triazin-7-yl]-N-[(3R,4S)-4-fluoro-1-(1-fluorocyclopropanecarbonyl)pyrrolidin-3-yl]benzamide] | 0.096
7 | COc1ncc(-c2cc(C(F)(F)F)c3c(N)ncnn23)cc1C(=O)N[C@@H]1CN(C(=O)c2cnnc(Cl)c2)C[C@@H]1F [Example 1215, 5-[4-amino-5-(trifluoromethyl)pyrrolo[2,1-f][1,2,4]triazin-7-yl]-N-[(3R,4S)-1-(6-chloropyridazine-4-carbonyl)-4-fluoropyrrolidin-3-yl]-2-methoxypyridine-3-carboxamide] | 0.076
8 | COc1ncc(-c2cc(CN3CCC(F)(F)CC3)c3c(N)ncnn23)cc1C(=O)N[C@@H]1CN(C(=O)OCC(F)(F)C(F)(F)F)C[C@@H]1F [Example 1522, 2,2,3,3,3-pentafluoropropyl (3R,4S)-3-(5-{4-amino-5-[(4,4-difluoropiperidin-1-yl)methyl]pyrrolo[2,1-f][1,2,4]triazin-7-yl}-2-methoxypyridine-3-amido)-4-fluoropyrrolidine-1-carboxylate] | 0.0038
9 | [2H]C([2H])([2H])Oc1ncc(-c2cc(C(F)(F)F)c3c(N)ncnn23)cc1C(=O)N[C@@H]1CN(C(=O)C2CCC(F)(F)CC2)C[C@@H]1F [Example 375, 5-[4-amino-5-(trifluoromethyl)pyrrolo [2,1-f][1,2,4]triazin-7-yl]-N-[(3R,4S)-1-(4,4-difluorocyclohexanecarbonyl)-4-fluoropyrrolidin-3-yl]-2-(deutero) methoxypyridine-3-carboxamide] | 0.013
10 | CC(CC(=O)N1C[C@H](F)[C@H](NC(=O)c2cc(-c3cc(C(F)(F)F)c4c(N)ncnn34)c(F)cc2F)C1)C(F)(F)F (stereo partly drawn) [Example 785, 5-[4-amino-5-(trifluoromethyl)pyrrolo[2,1-f][1,2,4]triazin-7-yl]-2,4-difluoro-N-[(3R,4S)-4-fluoro-1-(4,4,4-trifluoro-3-methylbutanoyl)pyrrolidin-3-yl]benzamide] | 0.0062
11 | COc1cc(F)c(-c2cc(C(F)(F)F)c3c(N)ncnn23)cc1C(=O)N[C@@H]1CN(C(=O)C(C)(C)F)C[C@@H]1F [Example 868, 5-[4-amino-5-(trifluoromethyl)pyrrolo[2,1-f][1,2,4]triazin-7-yl]-4-fluoro-N-[(3R,4S)-4-fluoro-1-(2-fluoro-2-methylpropanoyl)pyrrolidin-3-yl]-2-methoxybenzamide] | 0.0092
12 | Nc1ncnn2c(-c3cc(C(=O)N[C@@H]4CN(C(=O)CC(F)(F)F)C[C@@H]4F)c(Cl)cc3F)cc(CN3CC(F)(F)C3)c12 [Example 1307, 5-{4-amino-5-[(3,3-difluoroazetidin-1-yl)methyl]pyrrolo[2,1-f][1,2,4]-triazin-7-yl}-2-chloro-4-fluoro-N-[(3R,4S)-4-fluoro-1-(3,3,3-trifluoro-propanoyl)pyrrolidin-3-yl]benzamide] | 0.00089
13 | COc1ncc(-c2cc(CN3CCC(F)(F)CC3)c3c(N)ncnn23)cc1C(=O)N[C@@H]1CN(C(=O)c2cccc(F)c2)C[C@@H]1F [Example 1239, 5-{4-amino-5-[(4,4-difluoropiperidin-1-yl)methyl]pyrrolo[2,1-f][1,2,4]triazin-7-yl}-N-[(3R,4S)-4-fluoro-1-(3-fluorobenzoyl)pyrrolidin-3-yl]-2-methoxypyridine-3-carboxamide] | 0.0011
14 | COc1ncc(-c2cc(C(F)(F)F)c3c(N)ncnn23)cc1C(=O)N[C@@H]1CN(C(=O)C2(C)CCCC(C)(C)O2)C[C@@H]1F (stereo partly drawn) [Example 328, 5-[4-amino-5-(trifluoromethyl)pyrrolo[2,1-f][1,2,4]triazin-7-yl]-N-[(3R,4S)-4-fluoro-1-(2,6,6-trimethyloxane-2-carbonyl)pyrrolidin-3-yl]-2-methoxy-pyridine-3-carboxamide] | 0.157
15 | Cc1ncc(-c2cc(C(F)(F)F)c3c(N)ncnn23)cc1C(=O)NCC[C@H](O)c1ccc(Cl)cc1 [Example 169, 5-[4-amino-5-(trifluoromethyl)pyrrolo[2,1-f][1,2,4]triazin-7-yl]-N-[(3S)-3-(4-chlorophenyl)-3-hydroxypropyl]-2-methylpyridine-3-carboxamide] | 0.0017
16 | COc1ccc(-c2cc(C(F)(F)F)c3c(N)ncnn23)cc1C(=O)N[C@@H]1CN(C(=O)C(C)(C)O)C[C@@H]1F [Example 1116, 5-[4-amino-5-(trifluoromethyl)pyrrolo[2,1-f][1,2,4]triazin-7-yl]-N-[(3R,4S)-4-fluoro-1-(2-hydroxy-2-methylpropanoyl)pyrrolidin-3-yl]-2-methoxybenzamide] | 0.049
17 | Cc1ncc(-c2cc(C(F)(F)F)c3c(N)ncnn23)cc1C(=O)NC1CN(C(=O)C2CCC(F)CC2)C[C@@H]1F (stereo in doubt) [Example 359, 5-[4-amino-5-(trifluoromethyl)pyrrolo [2,1-f][1,2,4]triazin-7-yl]-N-[4-fluoro-1-(4-fluorocyclohexanecarbonyl)pyrrolidin-3-yl]-2-methylpyridine-3-carboxamide] | 0.015
18 | COc1ncc(-c2cc(C(F)(F)F)c3c(N)ncnn23)cc1C(=O)N[C@@H]1CN(C(=O)CCC(C)C)C[C@@H]1F [Example 308, 5-[4-amino-5-(trifluoromethyl)pyrrolo[2,1-f][1,2,4]triazin-7-yl]-N-[(3R,4S)-4-fluoro-1-(4-methylpentanoyl)pyrrolidin-3-yl]-2-methoxypyridine-3-carboxamide] | 0.043
19 | Cc1cc(F)c(-c2cc(C(F)(F)F)c3c(N)ncnn23)cc1C(=O)N[C@@H]1CN(C(=O)c2cscn2)C[C@@H]1F [Example 833, 5-[4-amino-5-(trifluoromethyl)pyrrolo[2,1-f][1,2,4]triazin-7-yl]-4-fluoro-N-[(3R,4S)-4-fluoro-1-(1,3-thiazole-4-carbonyl)pyrrolidin-3-yl]-2-methylbenzamide] | 0.0088
20 | COc1ncc(-c2cc(Cn3cnc(-c4ccccc4)c3)c3c(N)ncnn23)cc1C(=O)N[C@@H]1CN(C(=O)C2CC(F)(F)C2)C[C@@H]1F [Example 1712, 5-(4-amino-5-((4-phenyl-1H-imidazol-1-yl)methyl)pyrrolo[2,1-f][1,2,4]triazin-7-yl)-N-((3R,4S)-1-(3,3-difluorocyclobutane-1-carbonyl)-4-fluoropyrrolidin-3-yl)-2-methoxynicotinamide] | 0.075
21 | COc1ncc(-c2cc(C(F)(F)F)c3c(N)ncnn23)cc1C(=O)N[C@@H]1CN(C(=O)C2CCCO2)C[C@@H]1F (stereo partly drawn) [Example 325, 5-[4-amino-5-(trifluoromethyl)pyrrolo[2,1-f][1,2,4]triazin-7-yl]-N-[(3R,4S)-4-fluoro-1-(oxolane-2-carbonyl)pyrrolidin-3-yl]-2-methoxypyridine-3-carboxamide] | 0.106
22 | COc1ncc(-c2cc(CN3[C@@H]4CC[C@H]3CC(F)(F)C4)c3c(N)ncnn23)cc1C(=O)N[C@@H]1CN(C(=O)[C@@](C)(O)C(F)(F)F)C[C@@H]1F [Example 1608, 5-(4-amino-5-{[(1R,5S)-3,3-difluoro-8-azabicyclo[3.2.1]octan-8-yl]methyl}pyrrolo[2,1-f][1,2,4]triazin-7-yl)-N-[(3R,4S)-4-fluoro-1-[(2R)-3,3,3-trifluoro-2-hydroxy-2-methylpropanoyl]pyrrolidin-3-yl]-2-methoxypyridine-3-carboxamide] | 0.00059
23 | Nc1ncnn2c(-c3cc(F)cc(C(=O)N[C@@H]4CN(C(=O)C5CC(F)(F)C5)C[C@@H]4F)c3)cc(C(F)(F)F)c12 [Example 1315, 3-[4-amino-5-(trifluoromethyl)pyrrolo-[2,1-f][1,2,4]triazin-7-yl]-N-[(3R,4S)-1-(3,3-difluorocyclobutanecarbonyl)-4-fluoropyrrolidin-3-yl]-5-fluoro-benzamide] | 0.052
24 | COc1ncc(-c2cc(C(F)(F)F)c3c(N)ncnn23)cc1C(=O)NC1CN(CC2CCC2)CC1F (racemic) [Example 189, 5-[4-amino-5-(trifluoromethyl)pyrrolo[2,1-f][1,2,4]triazin-7-yl]-N-[1-(cyclobutylmethyl)-4-fluoropyrrolidin-3-yl]-2-methoxypyridine-3-carboxamide] | 0.032
